In the supplement of paper PMC3334620:
The full ranking holds about 33,000 sequences; the median of “E-score (-0.5 to 0.5)” is about -0.036, and the highest 2% start at about 0.37. This is one part of the list.

Target: T1, Yer064c (UniProt P40041)
T1 sequence: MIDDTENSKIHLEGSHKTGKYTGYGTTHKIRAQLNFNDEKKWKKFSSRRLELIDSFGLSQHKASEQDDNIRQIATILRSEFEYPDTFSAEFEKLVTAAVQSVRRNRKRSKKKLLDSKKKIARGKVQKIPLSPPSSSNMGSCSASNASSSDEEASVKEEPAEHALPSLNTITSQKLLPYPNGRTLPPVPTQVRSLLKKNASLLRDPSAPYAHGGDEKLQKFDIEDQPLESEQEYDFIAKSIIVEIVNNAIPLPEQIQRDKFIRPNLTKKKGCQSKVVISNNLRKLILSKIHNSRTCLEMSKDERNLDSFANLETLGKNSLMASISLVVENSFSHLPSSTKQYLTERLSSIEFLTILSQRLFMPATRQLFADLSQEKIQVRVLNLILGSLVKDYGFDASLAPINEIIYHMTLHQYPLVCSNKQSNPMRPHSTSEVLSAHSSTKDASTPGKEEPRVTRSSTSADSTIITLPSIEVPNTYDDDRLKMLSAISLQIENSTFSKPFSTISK
Assay: PBM E-score (8-mer binding enrichment) (E-score (-0.5 to 0.5)); higher = stronger / more preferred TF binding; most listed sequences are background and not binding sites
Conditions: protein concentration: 200 nM; construct: GST-full length
Experimental: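 Universal 'all 10-mer' protein binding microarrays (Agilent AMADID 015681) probed with GST-tagged S. cerevisiae TFs (full-length or DBD) made by in vitro transcription/translation (PURExpress), about 100-200 nM. Bound TF was detected with fluorescent anti-GST. Each ungapped 8-mer (which stands for itself and its reverse complement) is scored by the PBM enrichment score (E-score), a modified Wilcoxon-Mann-Whitney statistic from -0.5 to +0.5, computed with the Universal PBM Analysis Suite. Scale: above 0.35 generally sequence-specific binding.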

Row | Sequence | PBM E-score
1 | CCTGCGTA | 0.00633
2 | CAATAAGC | -0.0857
3 | AGTAGTAC | 0.136
4 | GGCATACC | -0.234
5 | ATATGAGC | 0.0528
6 | TCATGGCA | 0.153
7 | TAACCCAA | 0.132
8 | CGTCGAGC | -0.122
9 | CCCAATTC | -0.103
10 | AGTAAGGA | 0.0173
11 | ACGCGACC | -0.263
12 | CAATCGCG | -0.0813
13 | GGCAGGGA | -0.0423
14 | CATTTGGC | -0.0348
15 | GTGACTTA | 0.443
16 | ACGCCTGA | 0.0377
17 | AAGGTAAG | -0.0105
18 | TATGCGCA | -0.147
19 | ATGACTTC | 0.469
20 | GACGGCAA | -0.0972
21 | ACTTTCCT | -0.019
22 | CGCAAGCC | -0.177
23 | AAAACTGG | -0.243
24 | ACCTCGCC | -0.203
25 | CGAAGCAC | -0.0626

Row | Sequence | PBM E-score
26 | TATACATA | 0.127
27 | ACAGCACT | -0.0496
28 | CGGGACAC | -0.146
29 | CAATGTTA | -0.0325
30 | GCTTTCTA | -0.00665
31 | AACTAATT | 0.128
32 | CGTCGTTA | -0.0429
33 | CACACAAG | 0.144
34 | GGCGACCA | -0.416
35 | GTAGAACA | -0.261
36 | GGCTGTTA | -0.163
37 | AATAGCCT | -0.0586
38 | ACAGCATG | -0.047
39 | AGGATATA | -0.00012
40 | GCTTTAGA | -0.0435
41 | CCAGTGTA | -0.0872
42 | CACACATC | 0.192
43 | TTCAAAAA | 0.144
44 | TAAGCTTA | 0.157
45 | CCATCTGA | 0.15
46 | CAAGCAAA | -0.206
47 | TGGAGACA | 0.172
48 | GTCGGACA | -0.0758
49 | TCAGTTAA | 0.0951
50 | ACTGCATG | 0.126

Row | Sequence | PBM E-score
51 | AACGCCGC | -0.324
52 | CCCTATAG | -0.0183
53 | GTAGTAAC | 0.0921
54 | GATCCAAC | -0.148
55 | CGTTTACC | 0.0722
56 | CTGAGCAG | 0.0225
57 | CTTACAAC | -0.0451
58 | CGGGTGAC | 0.199
59 | GCGACGCC | -0.314
60 | AACTTCCT | 0.0478
61 | CAGTAGAA | -0.0503
62 | CTATTCTA | 0.132
63 | AGAATATG | 0.0395
64 | GCCGTCAC | -0.196
65 | CACAAGGA | 0.25
66 | AATTGCGG | 0.0246
67 | GTTCGAGA | -0.0119
68 | ATAAAGCC | -0.207
69 | ACTGGGGG | -0.212
70 | CGATAGGC | -0.172
71 | CTTCATCA | 0.0982
72 | GCTGACGA | 0.129
73 | CCCGGAGA | -0.138
74 | CGTGAAAA | -0.0566
75 | GGAGGAAA | -0.0699

Row | Sequence | PBM E-score
76 | GTGCTGCA | -0.214
77 | GCGTGCGA | -0.0939
78 | ATCAGGGC | -0.0445
79 | GATAACAC | -0.145
80 | CAAGAATG | 0.018
81 | ACATACAC | 0.0835
82 | AGGTATCC | -0.229
83 | ATGGTGAC | 0.22
84 | AGGGACTA | 0.222
85 | AATTCCCG | -0.0557
86 | CAGAACTC | 0.0471
87 | AATGATGG | -0.0994
88 | AGACAAAA | 0.00377
89 | ATGCTGGA | -0.0219
90 | GCTCCTCC | -0.221
91 | CACCGCAA | -0.0119
92 | GCAGCGGA | -0.0986
93 | AAGTGACA | 0.0209
94 | GCACTCGC | -0.158
95 | CCACCTCA | -0.12
96 | ACTTAGCA | 0.0868
97 | AATCTCAA | 0.139
98 | AACACGAC | 0.139
99 | GGTGTTAC | 0.219
100 | GAGCTTCC | -0.0369

Row | Sequence | PBM E-score
101 | CATCCATA | 0.00119
102 | GGGTGTGA | 0.137
103 | CCTCCGCA | -0.358
104 | GCATTGAC | 0.157
105 | ACAATCGG | -0.0601
106 | CACAGGAA | 0.0467
107 | TACCCATA | 0.229
108 | GCTAGCAC | -0.143
109 | AGATAGCC | -0.0862
110 | CCCGACGC | -0.059
111 | CGCAGACC | -0.276
112 | ATCTTCTG | -0.125
113 | GGGATCAC | -0.0848
114 | CGGCCCTC | -0.331
115 | AGTAACGG | -0.00353
116 | AGGAGTAT | 0.00681
117 | CCGATAGC | -0.265
118 | GGGATAGA | -0.313
119 | GATGTGCC | -0.119
120 | GACCTGGC | -0.408
121 | AACATGGA | 0.00424
122 | AAGAAGAC | 0.0851
123 | CACAGTGG | 0.036
124 | GGACCGAC | -0.117
125 | AACCCACA | 0.043

Row | Sequence | PBM E-score
126 | CCCGATCA | -0.244
127 | CAGAATTC | 0.0866
128 | GGCGTACA | -0.0682
129 | ATATTCAC | -0.0263
130 | ACGACTTC | 0.324
131 | CCACGTCC | -0.319
132 | CACTTATC | 0.0332
133 | ACTGGTAG | 0.053
134 | CAATTTAA | 0.185
135 | CTGGGCAA | -0.0496
136 | CAAGGGGC | -0.113
137 | ACACAATG | 0.202
138 | ACATCCGA | -0.106
139 | TAATGACA | 0.101
140 | AAGACGCG | -0.217
141 | CGGTTCTC | -0.13
142 | CCGCTACG | -0.206
143 | ACCTGTTG | -0.0987
144 | GAGGCACC | -0.457
145 | CGATCGCG | -0.197
146 | CGTGTTGC | -0.0244
147 | AGTAACTG | -0.0725
148 | AGCAAACT | 0.0618
149 | ACGGACAA | 0.0629
150 | AAAATAGC | -0.258

Row | Sequence | PBM E-score
151 | ACTTTTTC | 0.0284
152 | CAGCCTCA | -0.158
153 | GACCTTAC | -0.0771
154 | CGTGAATA | 0.0635
155 | CCCTATAC | -0.0386
156 | CCCGGTGC | -0.251
157 | CGGAAGCA | -0.135
158 | ACCCCAAG | -0.188
159 | ATCGGACA | -0.0974
160 | ATTGGCGG | -0.0566
161 | GCGGCTGA | -0.0585
162 | TCCGCAAA | -0.0299
163 | CGGATTAG | -0.147
164 | AAGATCTA | -0.144
165 | AACGTCCA | -0.0452
166 | GTTATAGA | 0.0496
167 | AAAAAATG | -0.0204
168 | GGGAAGGA | -0.139
169 | CGGCGGTA | -0.0622
170 | CCAACGGC | -0.252
171 | ATCTAACA | -0.0587
172 | ATGGAGCG | -0.0563
